The full ranking holds about 81,000 sequences; the median of “one-hybrid fitness for binding NBS DNA” is about -0.1, and the highest 2% start at about 0.36. The list shows a part of the results.
B1: Caulobacter ParB omega fusion; a variant is named by its letters at X, in order, B8GW30 (parent)
chain: MESVVVGEPGMSEGRRGLGRGLSALLGEVDAAPAQAPGEQLGGSREAPIEILQRNPDQPRRTFREEDLEDLSNSIREKGVLQPILVRPSPDTAGEYQIVAGERAWRAAQRAGLKTVPIMVRELDDLAVLEIGIIENVQRADLNVLEEALSYKVLMEKFERTQENIAQTIGKSXSHVANXMRLLXLPDEVQSYLVSGELTAXHARAIAAAADPVALAKQIIEGGLSVRETEALARKAPNLSAGKSKGGRPPRVKDTDTQALESDLSSVLGLDVSIDHRGSTGTLTITYATLEQLDDLCNRLTRGI

Variants of: B1
Test: one-hybrid fitness for binding NBS DNA (the Noc-binding site; scaled: cognate 1, non-cognate 0); higher = stronger binding
Conditions: with NBS DNA site
Procedure, shortened: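 The reporter was HIS3, with the binding site 19 bp from the promoter, in E. coli USO used for bacterial one-hybrid selection of Caulobacter ParB libraries with four specificity codons randomised. Growth was on M9 lacking histidine, with 0.1 mM IPTG and 5 mM 3-AT, for 48 hours at 37°C. Illumina sequencing covered plasmids before and after selection; three replicate libraries were pooled and variants with under 10 reads dropped. A fitness score is the log change in variant-to-wild-type read ratio, rescaled to the cognate and non-cognate references.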

| Variant | one-hybrid fitness for binding NBS DNA |
| --- | --- |
| SHVI | ≤ 0.2 |
| LMGR | ≤ 0.2 |
| NLER | ≤ 0.2 |
| ALQS | ≤ 0.2 |
| KNHD | ≤ 0.2 |
| PYEG | ≤ 0.2 |
| DSND | ≤ 0.2 |
| DSYG | ≤ 0.2 |
| DLRF | ≤ 0.2 |
| IPSI | ≤ 0.2 |
| SPDS | ≤ 0.2 |
| SGSS | ≤ 0.2 |
| SACA | ≤ 0.2 |
| MFPE | ≤ 0.2 |
| GWRY | ≤ 0.2 |
| HNDS | ≤ 0.2 |
| LNAN | ≤ 0.2 |
| TPEG | ≤ 0.2 |
| GPDI | ≤ 0.2 |
| ALLE | ≤ 0.2 |
| HLPG | ≤ 0.2 |
| LATR | ≤ 0.2 |
| KCEG | ≤ 0.2 |
| NKER | ≤ 0.2 |

| Variant | one-hybrid fitness for binding NBS DNA |
| --- | --- |
| NSFC | ≤ 0.2 |
| TGDM | ≤ 0.2 |
| QTKC | 0.53 |
| KTTS | ≤ 0.2 |
| ISIG | ≤ 0.2 |
| ARPL | ≤ 0.2 |
| HWNY | ≤ 0.2 |
| TRHC | ≤ 0.2 |
| GWRT | ≤ 0.2 |
| DPMS | ≤ 0.2 |
| AQTM | ≤ 0.2 |
| RVTE | ≤ 0.2 |
| ERNP | ≤ 0.2 |
| NNNG | ≤ 0.2 |
| AGPY | ≤ 0.2 |
| TNDM | ≤ 0.2 |
| GPVT | ≤ 0.2 |
| QYTC | ≤ 0.2 |
| KKQC | ≤ 0.2 |
| VLTP | ≤ 0.2 |
| PGQN | ≤ 0.2 |
| LIGV | ≤ 0.2 |
| NKAR | ≤ 0.2 |
| ADFY | ≤ 0.2 |

| Variant | one-hybrid fitness for binding NBS DNA |
| --- | --- |
| SKYG | ≤ 0.2 |
| SLWI | ≤ 0.2 |
| TTLE | ≤ 0.2 |
| DLLW | ≤ 0.2 |
| PWYS | ≤ 0.2 |
| PLMK | ≤ 0.2 |
| AWPV | ≤ 0.2 |
| PLRQ | ≤ 0.2 |
| PHDL | ≤ 0.2 |
| PKAY | ≤ 0.2 |
| MINR | ≤ 0.2 |
| NEEI | ≤ 0.2 |
| CHGG | ≤ 0.2 |
| QRSW | 0.261 |
| SQYS | ≤ 0.2 |
| QPKN | ≤ 0.2 |
| NCLA | ≤ 0.2 |
| SCWT | ≤ 0.2 |
| WQLA | ≤ 0.2 |
| SSPS | ≤ 0.2 |
| SAMI | ≤ 0.2 |
| DGIT | ≤ 0.2 |
| MTGG | ≤ 0.2 |
| NPKT | ≤ 0.2 |

| Variant | one-hybrid fitness for binding NBS DNA |
| --- | --- |
| ARNC | ≤ 0.2 |
| INNT | ≤ 0.2 |
| CCSA | ≤ 0.2 |
| MMAL | ≤ 0.2 |
| PQGA | ≤ 0.2 |
| QQHA | 0.384 |
| DHTT | ≤ 0.2 |
| EIHR | ≤ 0.2 |
| QVMP | ≤ 0.2 |
| TAWL | ≤ 0.2 |
| NLLT | ≤ 0.2 |
| ELQL | ≤ 0.2 |
| LIQG | ≤ 0.2 |
| HIWT | ≤ 0.2 |
| GDRL | ≤ 0.2 |
| NSRL | ≤ 0.2 |
| RKVM | ≤ 0.2 |
| GVQG | ≤ 0.2 |
| TCHR | ≤ 0.2 |
| NTCM | ≤ 0.2 |
| ALHQ | ≤ 0.2 |
| MYYW | ≤ 0.2 |
| ALGT | ≤ 0.2 |
| HRIW | ≤ 0.2 |

| Variant | one-hybrid fitness for binding NBS DNA |
| --- | --- |
| NDFI | ≤ 0.2 |
| GWRH | ≤ 0.2 |
| GCGS | ≤ 0.2 |
| FRKA | ≤ 0.2 |
| HIFT | ≤ 0.2 |
| QRIK | 0.213 |
| QFSL | ≤ 0.2 |
| GSRY | ≤ 0.2 |
| QHPH | ≤ 0.2 |
| AALK | ≤ 0.2 |
| TLDC | ≤ 0.2 |
| VPRP | ≤ 0.2 |
| EAWM | ≤ 0.2 |
| TYGA | ≤ 0.2 |
| RHNN | ≤ 0.2 |
| TMMT | ≤ 0.2 |
| STIT | ≤ 0.2 |
| QARE | 0.206 |
| RKKN | 0.252 |
| RYAV | ≤ 0.2 |
| LITW | ≤ 0.2 |
| RELN | ≤ 0.2 |
| YLAI | ≤ 0.2 |
| RCVR | 0.349 |

| Variant | one-hybrid fitness for binding NBS DNA |
| --- | --- |
| QISQ | ≤ 0.2 |
| LNVN | ≤ 0.2 |
| FYWG | ≤ 0.2 |
| FCPL | ≤ 0.2 |
| TADH | ≤ 0.2 |
| YGWR | ≤ 0.2 |
| PYPH | ≤ 0.2 |
| QKPR | 0.271 |
| KRIW | ≤ 0.2 |
| GANF | ≤ 0.2 |
| MWAG | ≤ 0.2 |
| KRCM | ≤ 0.2 |
| YKAS | ≤ 0.2 |
| DHHR | ≤ 0.2 |
| CAGG | ≤ 0.2 |
| AWAL | ≤ 0.2 |
| HGYW | ≤ 0.2 |
| PKRD | ≤ 0.2 |
| SAYG | ≤ 0.2 |
| WQMV | ≤ 0.2 |
| HHPM | ≤ 0.2 |
| SHAW | ≤ 0.2 |
| KTNL | ≤ 0.2 |
| TALW | ≤ 0.2 |

| Variant | one-hybrid fitness for binding NBS DNA |
| --- | --- |
| HVQR | ≤ 0.2 |
| CGLY | ≤ 0.2 |
| AASV | ≤ 0.2 |
| WVMW | ≤ 0.2 |
| DARC | ≤ 0.2 |
| LRRT | 0.342 |
| LSHG | ≤ 0.2 |
| SRFA | ≤ 0.2 |
| DHGC | ≤ 0.2 |
| PLQE | ≤ 0.2 |
| VPEY | ≤ 0.2 |
| QNWN | ≤ 0.2 |
| EIPS | ≤ 0.2 |
| YRRV | ≤ 0.2 |
| GYID | ≤ 0.2 |
| CYDG | ≤ 0.2 |
| INDN | ≤ 0.2 |
| RLWK | ≤ 0.2 |
| WGAF | ≤ 0.2 |
| HSFS | ≤ 0.2 |
| PLPD | ≤ 0.2 |
| CSER | ≤ 0.2 |
| IRLG | ≤ 0.2 |
| WTHK | ≤ 0.2 |

| Variant | one-hybrid fitness for binding NBS DNA |
| --- | --- |
| WHAK | ≤ 0.2 |
| YGYN | ≤ 0.2 |
| SQTV | ≤ 0.2 |
| VTLP | ≤ 0.2 |
| HQNQ | ≤ 0.2 |
| YPPR | ≤ 0.2 |
| YFEC | ≤ 0.2 |
| PRDT | ≤ 0.2 |
| TDDN | ≤ 0.2 |
| LRDG | ≤ 0.2 |
| YLCC | ≤ 0.2 |
| AYLY | ≤ 0.2 |
| WLCL | ≤ 0.2 |
| PKYY | ≤ 0.2 |
| QHTD | ≤ 0.2 |
| LDGS | ≤ 0.2 |
| QMWE | ≤ 0.2 |
| RWYT | ≤ 0.2 |
| GWLP | ≤ 0.2 |
| RSFK | ≤ 0.2 |
| GFMT | ≤ 0.2 |
| YRSQ | ≤ 0.2 |
| PGLT | ≤ 0.2 |
| QNYC | 0.218 |

| Variant | one-hybrid fitness for binding NBS DNA |
| --- | --- |
| RAFW | ≤ 0.2 |
| CKRK | ≤ 0.2 |
| ARLR | ≤ 0.2 |
| KVDN | ≤ 0.2 |
| SVSC | ≤ 0.2 |
| KQRS | 0.224 |
| TWHC | ≤ 0.2 |
| DCCG | ≤ 0.2 |
| RIQF | ≤ 0.2 |
| LLME | ≤ 0.2 |
| LREQ | ≤ 0.2 |
| GVNR | ≤ 0.2 |
| VQVG | ≤ 0.2 |
| PGNT | ≤ 0.2 |
| LQAW | ≤ 0.2 |
| IESS | ≤ 0.2 |
| HWAN | ≤ 0.2 |
| SNVL | ≤ 0.2 |
| EYRR | ≤ 0.2 |
| RWSY | ≤ 0.2 |
| ASGK | ≤ 0.2 |
| RIEY | ≤ 0.2 |
| VESV | ≤ 0.2 |
| CSLY | ≤ 0.2 |

| Variant | one-hybrid fitness for binding NBS DNA |
| --- | --- |
| HHNG | ≤ 0.2 |
| DATT | ≤ 0.2 |
| RVAN | ≤ 0.2 |
| TDMF | ≤ 0.2 |
| RAMS | 0.333 |
| QGAD | ≤ 0.2 |
| TYDW | ≤ 0.2 |
| GGQL | ≤ 0.2 |
| RLMC | ≤ 0.2 |
| RNCA | ≤ 0.2 |
| TGYH | ≤ 0.2 |
| HGGG | ≤ 0.2 |
| FFLI | ≤ 0.2 |
| SLRA | ≤ 0.2 |
| ADDG | ≤ 0.2 |
| AEKG | ≤ 0.2 |
| EYPT | ≤ 0.2 |
| TQRC | ≤ 0.2 |
| SRMG | ≤ 0.2 |
| WAWW | ≤ 0.2 |
| QFPR | ≤ 0.2 |
| SILW | ≤ 0.2 |
| AHGV | ≤ 0.2 |
| TFNK | ≤ 0.2 |

| Variant | one-hybrid fitness for binding NBS DNA |
| --- | --- |
| YIPL | ≤ 0.2 |
| KIAR | ≤ 0.2 |
| QVTN | ≤ 0.2 |
| WVMT | ≤ 0.2 |
| RMFD | ≤ 0.2 |
| GKME | ≤ 0.2 |
| GCRA | ≤ 0.2 |
| HHRA | ≤ 0.2 |
| QKVT | 0.44 |
| CHAV | ≤ 0.2 |
| LKSL | ≤ 0.2 |
| SKPT | ≤ 0.2 |
| VHIL | ≤ 0.2 |
| HEPS | ≤ 0.2 |
| HTVR | ≤ 0.2 |
| HSSS | ≤ 0.2 |
| ERCT | ≤ 0.2 |
| TYKH | ≤ 0.2 |
| VVGC | ≤ 0.2 |
| PWRF | ≤ 0.2 |
| NCHI | ≤ 0.2 |
| AEHC | ≤ 0.2 |
| TTEA | ≤ 0.2 |
| KVCR | ≤ 0.2 |

| Variant | one-hybrid fitness for binding NBS DNA |
| --- | --- |
| CRQF | ≤ 0.2 |
| NHNG | ≤ 0.2 |
| ASRN | ≤ 0.2 |
| LSKH | ≤ 0.2 |
| GWNG | ≤ 0.2 |
| KRQM | ≤ 0.2 |
| YEGS | ≤ 0.2 |
| TTQS | ≤ 0.2 |
| DETC | ≤ 0.2 |
| QYDY | ≤ 0.2 |
| LPQD | ≤ 0.2 |
| RRCT | 0.77 |
| SNSC | ≤ 0.2 |
| MFPG | ≤ 0.2 |
| LKMC | ≤ 0.2 |
| RADH | ≤ 0.2 |
| SIPY | ≤ 0.2 |
| TVAV | ≤ 0.2 |
| SNYL | ≤ 0.2 |
| LTQG | ≤ 0.2 |
| TVPL | ≤ 0.2 |
| RWGA | ≤ 0.2 |
| PDKA | ≤ 0.2 |
| RIGM | ≤ 0.2 |

| Variant | one-hybrid fitness for binding NBS DNA |
| --- | --- |
| RHSM | ≤ 0.2 |
| PGIR | ≤ 0.2 |
| CKTW | ≤ 0.2 |
| MMTI | ≤ 0.2 |
| EYMV | ≤ 0.2 |
| CNTA | ≤ 0.2 |
| RYTC | ≤ 0.2 |
| YGPM | ≤ 0.2 |
| TKHK | ≤ 0.2 |
| QHDR | 0.336 |
| VGWL | ≤ 0.2 |
| RNSP | ≤ 0.2 |
| TCHC | ≤ 0.2 |
| YRKQ | ≤ 0.2 |
| WTKT | ≤ 0.2 |
| GLLK | ≤ 0.2 |
| QPLG | ≤ 0.2 |
| QSPQ | ≤ 0.2 |

— a collection of fitness landscapes (doi:10.1016/j.celrep.2020.107928)
